# Out of some 340,000 compounds screened, about 530 (0.16%) were called active. Inconclusive results, whose numbers are uncertain, are shown with a selection of clear calls. Cut-off read from the data, not from the text of the source: active = activity change below about -80%; inconclusive = between about -30% and that limit; inactive = weaker than that.
# Test: Small Molecules that selectively kill Giardia lamblia: qHTS;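 note: parasites exposed to compound for two days anaerobically before the ATP read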
# Settings: Giardia lamblia trophozoite viability; at 7.66 µM; active compounds read low
# In short: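 Each well holds 100 Giardia trophozoites and compound. After two days (48 hrs) at 37 deg C in anaerobic conditions, ATP is quantified by luminescence.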
# % is set by controls: 0 for no effect and ±100 for the full control effect.
row,Compound,activity change
1,COC(=O)[C@]1(C)N[C@H](CN(C)C(=O)Nc2ccc(Cl)cc2)[C@@H]2C(=O)N(Cc3ccccc3)C(=O)[C@@H]21,inconclusive: -43.6% [inhibitor]
2,COc1ccc(CNc2nc3c(c(=O)[nH]c(=O)n3C)n2Cc2ccccc2)cc1,inconclusive: -30.5% [inhibitor]
3,Cc1c(C(c2cccc(Br)c2)c2c(C)n(C)n(-c3ccccc3)c2=O)c(=O)n(-c2ccccc2)n1C,inactive: -3.24%
4,COc1ccc(NS(=O)(=O)c2cc(S(C)(=O)=O)ccc2C)cc1,inconclusive: -30.8% [inhibitor]
5,O=[N+]([O-])c1cccc(-n2nnnc2CNCc2ccccc2)c1,inconclusive: -48.5% [inhibitor]
6,CN(O)C(=S)c1ccccc1,inconclusive: -37.8% [inhibitor]
7,C=CCN1CCN(C(=O)c2ccc(-c3ccccc3)cc2)CC1,inconclusive: -30% [inhibitor]
8,CCOC(=O)C(C)(C)Sc1nc2c(cnn2-c2ccc(Cl)cc2)c(=O)[nH]1,inconclusive: -30.4% [inhibitor]
9,Cc1ccc([C@H]2C(C(=O)O)=CC[C@@H](c3cccc(C)c3)N2S(=O)(=O)c2ccc(C)cc2)cc1,inconclusive: -40.9% [inhibitor]
10,CCOC(=O)/C(=N\Nc1ccc(C(C)=O)cc1)c1csc(Nc2ccccc2)n1,inactive: 6.21%
11,COc1ccc(-c2c(-c3ccc(OCC(=O)NN)cc3O)n[nH]c2C(F)(F)F)cc1,inactive: -1.9%
12,Cc1cc(C(=O)Nc2ccc(N3CCCCC3)cc2)no1,inconclusive: -42.5% [inhibitor]
13,C[N+]1(C)CCC(=C2c3ccccc3CC(=O)c3sccc32)CC1,inactive: 1.2%
14,O=C(NCCc1ccccc1)c1ccc(Cl)cc1[N+](=O)[O-],inconclusive: -31.3% [inhibitor]
15,CN(C(=O)CCN1C(=O)C2C3C=CC(C3)C2C1=O)c1ccccc1 (stereo not drawn),inactive: 7.73%
16,COc1ccc(SCc2noc(C(=O)NCC3CCCO3)c2C(=O)O)cc1 (stereo not drawn),inconclusive: -30.2% [inhibitor]
17,CC(C)CNC(=S)N(CCCO)Cc1cc2cc3c(cc2[nH]c1=O)OCCO3,inconclusive: -37.1% [inhibitor]
18,COc1ccccc1N1CCN(C(=O)CSc2ncnc3scc(-c4ccccc4)c23)CC1,inactive: -3.8%
19,Cc1ccc(NC(=O)COC(=O)C2CSC3(C)CCC(=O)N23)cc1S(=O)(=O)N1CCOCC1 (stereo not drawn),inconclusive: -32.6% [inhibitor]
20,Brc1nc(Br)n(Cc2ccccc2)n1,inconclusive: -33.4% [inhibitor]
21,COc1ccc(-c2cn3cc(C)ccc3n2)cc1Br,inconclusive: -45.6% [inhibitor]
22,O=C(Nc1ccc2[nH]ccc2c1)c1ccccc1,inconclusive: -52.7% [inhibitor]
23,COc1ccccc1NS(=O)(=O)c1cc(NC(=O)CCNC(C)=O)ccc1N1CCCCC1,inconclusive: -40.2% [inhibitor]
24,COc1cccc(NC(=O)/C=C/c2ccccc2[N+](=O)[O-])c1,inactive: -6.11%
25,COc1ccc(NC(=O)c2cc([N+](=O)[O-])ccc2O)cc1,active: -89.5%
26,CNC(=S)N(CCc1c(C)[nH]c2ccc(C)cc12)Cc1cc(OC)c(OC)c(OC)c1,inconclusive: -39.1% [inhibitor]

row,Compound,activity change
1,COc1ccc(NC(=O)CCCN2C(=O)C3C4C=CC(C4)C3C2=O)c(OC)c1 (stereo not drawn),inconclusive: -34.3% [inhibitor]
2,CC(O)CNc1ncnc2cc(-c3ccc(F)cc3)sc12 (stereo not drawn),inactive: -3.51%
3,CCOc1cc(N2CCOCC2)c(OCC)cc1NC(=O)CN1C(=O)NC(CC(C)C)C1=O (stereo not drawn),inconclusive: -30.3% [inhibitor]
4,COc1ccccc1N1CCN(C2CCCCC2NS(=O)(=O)c2ccc(Cl)cc2)CC1 (stereo not drawn),inconclusive: -37.1% [inhibitor]
5,CCOc1ccc(N(CC(=O)Nc2ccc(OC)cc2)C2=NC3CS(=O)(=O)CC3S2)cc1 (stereo not drawn),inconclusive: -30% [inhibitor]
6,Cc1ccc(S(C)(=O)=O)cc1C(=O)NC(C)C1CC2CCC1C2 (stereo not drawn),inactive: 12.2%
7,Cc1ccc(CC(C(=O)O)C(C)C(=O)Nc2ccc(F)cc2)cc1 (stereo not drawn),inconclusive: -37.2% [inhibitor]
8,O=C(NC1CCCCC1)c1ccc([N+](=O)[O-])o1,active: -95.2%
9,CCOc1ccc(CN2CCNC(=O)C2CC(=O)OC)cc1 (stereo not drawn),inconclusive: -34.4% [inhibitor]
10,Cc1cccc(C(=O)n2cnnc2N)c1,inconclusive: -31.4% [inhibitor]
11,CC(O)c1cccc(NC(=O)C2CCCCC2)c1 (stereo not drawn),inconclusive: -30.7% [inhibitor]
12,COc1cccc(C(=O)N2c3cc(C)ccc3OCC2C(C)(C)C)c1 (stereo not drawn),inactive: -16.7%
13,Cc1cc(C(=O)N/N=C/c2ccc(Cl)c([N+](=O)[O-])c2)c(C)n1-c1ccc(F)cc1,inactive: -18.3%
14,O=C1NC(=Nc2ccccc2Cl)S/C1=C\c1cccc([N+](=O)[O-])c1O,inconclusive: -42.4% [inhibitor]
15,COc1cc2c3nnc(-c4ccc(F)cc4)c-3cn(Cc3ccc(F)cc3)c2cc1OC,inconclusive: -32.1% [inhibitor]
16,CSc1ncccc1C(=O)Nc1cccc(S(=O)(=O)N2CCCC2)c1,inactive: -2.52%
17,Cc1ccc(C(=O)O/N=C\c2ccc(N3CCCCC3)c([N+](=O)[O-])c2)cc1,inactive: 9.86%
18,COc1ccccc1C(=O)Nc1ccc(N2CCCCC2)cc1,inconclusive: -42.1% [inhibitor]
19,CCOc1ccc(CN2CCN(CCCn3cccn3)CC2CCO)cc1 (stereo not drawn),inconclusive: -41.4% [inhibitor]
20,Cc1nn(C(C)(C)C)c(C)c1/C=N/OC(=O)Nc1ccc(Cl)cc1,inconclusive: -38.9% [inhibitor]
21,COC1=CC(=O)CC(C)C12Oc1c(Cl)c(OC)cc(OC)c1C2=O (stereo not drawn),inactive: -17.3%
22,Cc1[nH]c(=O)[nH]c(=O)c1S(=O)(=O)Nc1ccc(Br)cc1F,inactive: -3.92%
23,OCc1ccc(N=Nc2ccccc2)cc1,inconclusive: -34.8% [inhibitor]
24,Cc1cccn2c(=O)c3cc(C(=O)N4COCC4(C)C)sc3nc12,inconclusive: -38% [inhibitor]
25,O=S(=O)(Nc1ccc(Br)cn1)c1ccc2ccccc2c1,inactive: 20.6%
26,Cc1ccc(C)c(Sc2ccc(NC(=O)CCl)cc2)c1,inconclusive: -53% [inhibitor]

row,Compound,activity change
1,CCOc1ccccc1CN1CCN(CCCn2cccn2)CC1CCO (stereo not drawn),inconclusive: -40.1% [inhibitor]
2,Cc1ccccc1-c1nc(-c2ccccn2)no1,inconclusive: -74.8% [inhibitor]
3,CCOC(=O)c1cccc(NC(=O)CCNS(=O)(=O)c2cc(Br)cnc2N)c1,inconclusive: -36.2% [inhibitor]
4,O=C(Nc1nc2ccccc2[nH]1)c1ccc(F)cc1,inconclusive: -46.5% [inhibitor]
5,CSc1nnc(NC(=O)c2nc(S(=O)(=O)Cc3cccc(C)c3)ncc2Cl)s1,inactive: -1.43%
6,COc1ccc(CN2CCNC(=O)C2CC(=O)N2CCCCO2)cc1OC (stereo not drawn),inconclusive: -34.6% [inhibitor]
7,O=C(c1cc(Cl)ccc1Cl)N1CCc2ccccc21,inconclusive: -41.7% [inhibitor]
8,CC(=O)c1c(COC(=O)c2ccco2)nc2ccccc2[n+]1[O-],inconclusive: -36.4% [inhibitor]
9,COC(=O)c1cc(S(=O)(=O)NCC2CCN(CCc3ccc(OC)cc3)CC2)c[nH]1,inactive: 8.93%
10,NS(=O)(=O)c1ccc(CCNC(=O)c2ccc(C#CC3(O)CCCCC3)cc2)cc1,inactive: -10.8%
11,O=C(NCCCc1ccccc1)c1ccc(F)cc1,inactive: 5.87%
12,N#C/C(=C\c1ccc(F)cc1)c1nc(-c2ccco2)cs1,inconclusive: -31.7% [inhibitor]
13,CN(C)c1ccc(/C=C2\SC(=O)N(CCc3nnc(N)s3)C2=O)cc1,inconclusive: -38.7% [inhibitor]
14,CN(C(=O)c1cccc(NC(=O)Cc2ccc(NC(=O)C3CCN(S(=O)(=O)c4cccc([N+](=O)[O-])c4)CC3)cc2)c1)C1CCCCC1,inconclusive: -41.5% [inhibitor]
15,CCn1c(SCC(=O)NCCc2ccccc2)nnc1-c1ccco1,inconclusive: -31.9% [inhibitor]
16,Cc1ccc(NC(=O)CCC(=O)N/N=C/c2ccc([N+](=O)[O-])o2)cc1C,inconclusive: -67.8% [inhibitor]
17,CN(c1ccccc1)c1nc(N)c([N+](=O)[O-])c(N2CCCCC2)n1,inactive: 1.27%
18,CCOC(=O)N1CCN(c2cc3nccnc3cc2F)CC1,inactive: 6.9%
19,CCSc1nnc(Cc2cc(=O)[nH]c(=O)[nH]2)n1-c1ccc(Cl)cc1,inconclusive: -32.5% [inhibitor]
20,CN1CCN(c2ccccc2NC(=O)c2ccc([N+](=O)[O-])o2)CC1,active: -91.5%
21,Cc1cccc(NC(=O)/C(C#N)=C/c2ccc(F)cc2)n1,inconclusive: -34.1% [inhibitor]
22,O=S1(=O)CCN2C=C(Br)C=C(Br)C2=N1,inactive: -4.92%
23,Cc1cc(C)cc(N=c2c([N+](=O)[O-])nn(-c3cccc(Cl)c3)n2O)c1,inconclusive: -75% [inhibitor]
24,Cc1cccc(NC(=O)c2cccc(C(F)(F)F)c2)c1,inconclusive: -38.7% [inhibitor]
25,Cc1ccc(O)c(NC(=S)NC(=O)CC(C)C)c1,inactive: -4.93%
26,CCNc1nc(NC(C)(C)C)nc(Oc2ccc(=O)n(-c3ccccc3)n2)n1,inconclusive: -42.3% [inhibitor]

# Source: PubChem BioAssay AID540267 (National Center for Advancing Translational Sciences (NCATS), 2011)
